SMILES strings stand for the structures. “And” between values parts separate entries of the source, which are not always exact repeats. Equal values may be shown once. Out of some 16,000 compounds screened, about 40 (0.2%) were called active. Inconclusive results (about 1%) are left out. Calls follow the shape of the dose curve; as a rule, active = well fitted activation curve with a large enough effect; inconclusive = small, poorly fitted or top-dose-only effect, or another doubt; inactive = no such curve, though single readings can be large or run the other way. The list shows a part of the results.
% is scaled to controls: 0 for no effect and ±100 for the full control effect.

In this test the target is Rap guanine nucleotide exchange factor 4 (Homo sapiens) (UniProt Q8WZA2). As to the kind of experiment: Validation qHTS for agonist of cAMP-regulated guanine nucleotide exchange factor 4 (EPAC2).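 Also: exchange makes BODIPY-GDP fluorescence drop when released from Rap1B; series mostly up to about 150 µM.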 To be noted: EPAC2 Rap1B BODIPY-GDP exchange, fluorescence; activation: hits give high values. The method, boiled down: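 Fluorescent exchange assay: 100 nM EPAC2 with 250 nM RAP1B-BODIPY-GDP and 50 uM GDP; compound added, 5 min at room temperature, then read (ex 480/em 540 nm) every 5 min for 30 min. Normalized to 6.5 mM cAMP agonist control.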
Sequence of UniProt Q8WZA2 (Q8WZA2 whole entry, looked up): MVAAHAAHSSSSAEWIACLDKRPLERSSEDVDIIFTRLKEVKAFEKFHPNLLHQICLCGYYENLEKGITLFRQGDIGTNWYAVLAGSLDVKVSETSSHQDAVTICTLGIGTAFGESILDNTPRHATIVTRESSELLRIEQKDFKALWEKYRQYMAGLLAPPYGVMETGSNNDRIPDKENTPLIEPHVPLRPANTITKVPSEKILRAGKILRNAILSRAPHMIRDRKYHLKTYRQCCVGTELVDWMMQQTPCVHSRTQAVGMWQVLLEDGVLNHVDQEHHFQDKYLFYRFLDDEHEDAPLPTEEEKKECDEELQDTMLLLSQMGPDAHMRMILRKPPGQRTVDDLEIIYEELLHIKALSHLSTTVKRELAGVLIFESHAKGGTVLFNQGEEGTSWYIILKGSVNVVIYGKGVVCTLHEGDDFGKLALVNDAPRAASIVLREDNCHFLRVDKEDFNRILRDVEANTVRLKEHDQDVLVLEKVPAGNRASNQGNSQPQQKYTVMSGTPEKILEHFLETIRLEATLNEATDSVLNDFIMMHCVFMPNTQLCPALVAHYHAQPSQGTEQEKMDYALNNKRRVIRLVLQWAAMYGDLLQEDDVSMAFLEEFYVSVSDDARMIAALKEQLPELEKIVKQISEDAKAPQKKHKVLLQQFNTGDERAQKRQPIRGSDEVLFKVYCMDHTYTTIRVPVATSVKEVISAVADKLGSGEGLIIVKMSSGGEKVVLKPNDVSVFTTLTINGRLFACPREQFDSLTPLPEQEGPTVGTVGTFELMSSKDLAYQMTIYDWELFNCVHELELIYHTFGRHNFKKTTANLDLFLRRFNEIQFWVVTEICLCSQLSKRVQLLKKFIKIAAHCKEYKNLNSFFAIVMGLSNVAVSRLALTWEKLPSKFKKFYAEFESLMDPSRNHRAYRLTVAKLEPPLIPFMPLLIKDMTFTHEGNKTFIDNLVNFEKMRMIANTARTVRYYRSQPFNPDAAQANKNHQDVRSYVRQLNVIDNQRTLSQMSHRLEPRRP
A general note: In qHTS, concentration-response curves come from the screen itself.
Turning to `N[C@@H](Cc1cc(CP(=O)(O)O)cc(-c2ccccc2Cl)c1)C(=O)O`, the activation was inactive: -10.5%.
The value for `C[C@H]1O[C@@H](n2cc(F)c(=O)[nH]c2=O)[C@H](O)[C@@H]1O` was inactive: 12%.
With `CCN1CCCC1CNC(=O)c1cnn(-c2nccc(-c3ccccc3OC)n2)c1-c1ccco1` (configuration not stated), the activation is inactive: 1.97%.
In the case of `CCCCC[C@H]1CN(CCc2ccccc2)C(=O)[C@@H]1CC(=O)NCc1ccc(OC)cc1` it was inactive: -38.7%; in that of `CC(=O)OC1CC[C@]2(C)C(CC(OC(C)=O)[C@@]3(C)C4=CC(=O)OC(c5ccoc5)[C@]4(C)CCC23)C1(C)C` (some centres not stated), inactive: -4.26% and inactive: -11.1% and inactive: -3.28%.
In the case of `CN(C)c1cccc2ccccc12` it was inactive: -24.1%; in that of `CCCCC(CC)COS(=O)(=O)O` (configuration not stated), inactive: 12.3%.
`CC(C)NC[C@H](O)COc1cccc2ccccc12`: the activation was inactive: 2.04% [middle of 4 runs].
Turning to `COc1ccc(C(=O)N2CCC3(CC2)CN(CC(C)C)C3)cc1`, the activation was inactive: -7.79%.
In the case of `CCn1c(-c2ccccc2F)nc2cc(NC(C)=O)cc(C(=O)NC(c3ccccn3)C(F)(F)F)c21` (configuration not stated) it was inactive: -4.56%; in that of `COc1cccc(-c2cc(NCc3ccccc3)ncn2)c1`, inactive: -14%.
The value for `C[C@H](NC(CCc1ccccc1)C(=O)O)C(=O)N1CCC[C@H]1C(=O)O` (some centres not stated) was inactive: -9.28%; that for `CN(C)Cc1ccccc1-c1cc(NCc2cccs2)ncn1` was inactive: 8.64%; that for `O=C(c1ccco1)N1CCC[C@@]2(CCN(Cc3ccccc3)C2)C1` was inactive: -8.15%.
As for `COc1ccc(CN2CCc3nnc(CCc4ccccc4)n3CC2)c(OC)c1C`, the activation was inactive: 2.73%.
In the case of `N[C@H](C(=O)O)C1C(C(=O)O)C1C(=O)O` (some centres not stated) it was inactive: 4.96%; in that of `O=C1CCC[C@@H]2CC(Nc3ccccc3)C[C@@H]3CCN1[C@H]23` (some centres not stated), inactive: -15.2%; in that of `COC1=C(C(=O)O)N2C(=O)[C@@H](NC(=O)[C@H](N)C3=CCC=CC3)[C@H]2SC1`, inactive: -3.84%.
With `O=[N+]([O-])c1cccc(CN2C[C@@]34C=C[C@@H](C[C@@H]3S2(=O)=O)O4)c1`, the activation is inactive: -1.69%.
Turning to `COc1ccc(NC(=O)[C@@H]2CC=C[C@@H]3CCN(C4CCCCC4)C(=O)[C@@H]32)cc1`, the activation was inactive: -22.2%.
In the case of `O=C(O)CCc1cccnc1`, the activation was inactive: -35.3%.
For the compound `NS(=O)(=O)c1cc(Cl)c(Cl)c(S(N)(=O)=O)c1`, the activation was inactive: -19.5%.
In the case of `CC(=C\c1ccccc1)/C=C1/SC(=S)N(CC(=O)O)C1=O` it was inactive: -26.2%.
`COc1c(C)c2c(c(O)c1C/C=C(\C)CCC(=O)O)C(=O)OC2`: the activation was inactive: -3.46% [middle of 4 runs].
The value for `COc1ccc(Oc2ncc3nc(-c4ccc(OC)cc4)c(=O)n(C4CC4)c3n2)cc1` was inactive: -3.69%; that for `Clc1ccccc1-c1nc(-c2ccncc2)no1` was inactive: -7.33%; that for `COC(=O)[C@@H]1C[C@H](NC(=O)c2cc(C(F)(F)F)ccc2Cl)CN1Cc1cccc(O)c1` was inactive: -2.26%.
In the case of `O=C(O)c1ccc(S(=O)(=O)N(Cl)Cl)cc1` it was inactive: 10.5%; in that of `O=C(Oc1ccccc1C(=O)O)c1ccccc1O`, inactive: -13.5%; in that of `O=C(O)C[C@H]1c2cc(F)ccc2S(=O)(=O)N1C1CCCC1`, inactive: -22.1%.
Take `Cc1ccc(-n2cc(CCCCCCCCC(=O)O)nn2)cc1`: the activation is inactive: -7.24%.
On to `Nc1ccc(C(=O)O)cc1`, for which the activation is inactive: 3.68% and inactive: 9.09%.
The value for `CN1CCN(c2ncc3nc(-c4cc(F)cc(F)c4)c(=O)n(-c4ccccc4)c3n2)CC1` was inactive: -27%; that for `CCN1CCCC(OC(=O)C(c2ccccc2)c2ccccc2)C1` (configuration not stated) was inactive: -14.9% and inactive: -1.19%; that for `[N-]=[N+]=NC[C@H](Cc1ccccc1)N1CC[C@@H](O)CCC1=O` was inactive: -8.03%.
In the case of `COc1ccc(C(=O)N2CCC3(CC2)CN(C(=O)NC(C)C)C3)cc1` it was inactive: 5.41%.
In the case of `COCCn1c(=O)c(C)nc2cnc(N3CCOCC3)nc21`, the activation is inactive: -1.44%.
In the case of `Cc1onc(-c2c(F)cccc2Cl)c1C(=O)N[C@@H]1C(=O)N2[C@@H]1SC(C)(C)[C@@H]2C(=O)O` it was inactive: 10.1% and inactive: -1.37%.
As to `COc1ccccc1C1OC(=O)CC1C(=O)OC[C@@H]1CCCN2CCCCC12` (some centres not stated), the activation was inactive: 16.1%.
As for `COc1ncc2nc(CCc3ccccc3)c(=O)n(CCc3ccccc3)c2n1`, the activation is inactive: -18.7%.
The value for `CCCCOC(=O)C(=O)Nc1cccc(-c2nn[nH]n2)c1` was inactive: 0.687%; that for `O=C(Nc1ccc(Cl)c(C(F)(F)F)c1)[C@@H]1CC=C[C@@H]2CCN(C3CC3)C(=O)[C@@H]21` was inactive: -10.7%.
Consider `CC1CC[C@@]2(OC1)OC1CC3C4CC=C5CC(O)CC[C@@]5(C)C4CC[C@]3(C)C1C2C` (some centres not stated), for which the activation was inactive: -17.8%.
The value for `CN(C)CCCSC(=N)N` was inactive: -12.4% and inactive: 1.4%; that for `COc1ccc(-c2cc(=O)c3c(O)cc(O[C@@H]4OC(COC5OC(C)C(O)C(O)[C@@H]5O)C(O)C(O)C4O)cc3o2)cc1` (some centres not stated) was inactive: -16.9%.
In the case of `Cn1cnnc1Sc1ccc(CN2CCOc3ccc(C4=CCCCC4)cc3C2)o1` it was inactive: -22.7%.
In the case of `COc1ccc(-n2c(=O)c(-c3cccc(C#N)c3)nc3cnc(N4CCNCC4)nc32)cc1` it was inactive: -8.05%.
In the case of `CNc1ncnc2ccc(-c3ccccc3CN(C)C)cc12`, the activation was inactive: -4.25%.
In the case of `COc1ccc(-c2coc3cc(O)ccc3c2=O)c(OC)c1O` it was inactive: -15%; in that of `NCCNCCNCCN`, inactive: -14.7%; in that of `COc1ccccc1CNc1nc(-c2ccccc2CN(C)C)nc2ccccc12`, inactive: -16.9%.
The value for `Cc1c(C(=O)O)c(O)cc2c1C(=O)c1c(O)c([C@H]3O[C@H](CO)[C@@H](O)[C@H](O)[C@H]3O)c(O)c(O)c1C2=O` was inactive: -8.9%; that for `Cc1csc(C(C)N(C)C(=O)c2cc(NC(=O)C3CCC3)c3c(c2)nc(-c2ccncc2)n3C)n1` (configuration not stated) was inactive: 2.87%.
Regarding `COc1ccc(/C=C/C(=O)NCC2Cc3cccc(-c4nc(C)cnc4C)c3O2)cc1OC` (configuration not stated), the activation was inactive: -2.67%.
The value for `Fc1ccc(N2CCN(Cc3ccc4c(c3)CN(Cc3cccn3-c3ncccn3)CCO4)CC2)cc1` was inactive: 1.79%.
The value for `O=C(NCCN1CCOCC1)c1ccc(Cl)cc1` was inactive: -11.9% and inactive: 10.6% and inactive: -3.93%.
In the case of `N#Cc1ccc(CN2CC3(CCN(C(=O)c4cc(C(F)(F)F)cc(C(F)(F)F)c4)CC3)C2)cc1` it was inactive: -16%; in that of `O=C(c1ccncc1)N1CCC2(CC1)CN(c1ccc(-c3ccccc3)cc1)C2`, inactive: 8.99%.
With `COCCn1c(=O)c(-c2ccccc2)nc2cnc(N3CCOCC3)nc21`, the activation is inactive: -8.21%.
The value for `Cc1ccc(/C(=C/CN2CCCC2)c2ccccn2)cc1` was inactive: -14.7%; that for `CC(C)(C)c1ccc(C(=O)C[n+]2ccc(Cl)c3ccc(Cl)cc32)cc1` was inactive: -17.3%; that for `C[C@]12CC[C@@H](O)C[C@@H]1CC[C@@H]1[C@@H]2CC[C@]2(C)C=CC[C@@H]12` was inactive: 2.4%.
On to `O=C(c1cccc(F)c1)N1CCC[C@@]2(CCN(Cc3nccs3)C2)C1`, for which the activation was inactive: -13.2%.
The value for `C[C@H]1[C@H](C)CC[C@]2(C(=O)O)CC[C@]3(C)C(=CCC4[C@@]5(C)CC[C@H](O)C(C)(C)[C@@H]5CC[C@]43C)[C@H]12` (some centres not stated) was inactive: -27%; that for `O=C(c1csnn1)N1CCC[C@@]2(CCN(c3ccncc3)C2)C1` was inactive: -5.02%.
The value for `O=C(c1cccc(F)c1)N1CCC2(CC1)CN(c1cccc(-c3ccccc3)c1)C2` was inactive: 8.32%; that for `COCc1nc2c([nH]1)c(=O)n(C)c(=O)n2CC(C)C` was inactive: -1.16% and inactive: 8.77% and inactive: -24.5%.
In the case of `O=C(NCc1ccccn1)c1cnn(-c2nccc(-c3cc4ccccc4o3)n2)c1C1CC1` it was inactive: -1.39%.
As to `COc1ccc(C[C@H](N)C(=O)N[C@H]2[C@@H](O)[C@H](n3cnc4c(N(C)C)ncnc43)O[C@@H]2CO)cc1`, the activation was inactive: -9.76%.
In the case of `[O-][n+]1cccc(CO)c1` it was inactive: -13.3%; in that of `COc1ccc(CCNC(=O)C(=O)c2c[nH]c3ccccc23)cc1`, inactive: -15.3%.
In the case of `COC(=O)c1cc(-c2c(-c3ccc4c(c3)OCO4)noc2-c2ccsc2)cc([N+](=O)[O-])c1` it was inactive: -15.2%; in that of `Cc1nc(CC(=O)NCC2Cc3cc(F)cc(-c4ccc(F)c(C)c4)c3O2)cs1` (configuration not stated), inactive: 1.17%.
In the case of `COC(=O)C1N2C(=O)[C@@H](NC(=O)COc3ccccc3)[C@H]2SC1(C)C` (some centres not stated) it was inactive: -3.21%; in that of `Fc1ccc([C@H]2CCNC[C@H]2COc2ccc3c(c2)OCO3)cc1`, inactive: -0.245%.
For `O=c1c(O)c(-c2ccccc2)oc2cccc(O)c12`, the activation was inactive: -10.2%.
In the case of `Cc1cc(C(=O)O[C@H]2[C@H](C)NS(=O)(=O)[C@H]3C[C@@H]4C=C[C@]23O4)cc([N+](=O)[O-])c1` it was inactive: -21.3%; in that of `C(=C1C=c2ccccc2=C1)c1ccc(N=Nc2ccc(C=C3C=c4ccccc4=C3)cc2)cc1`, inactive: -10.3%.
The value for `O=C(c1cc(C(F)(F)F)cc(C(F)(F)F)c1)N1CCC2(CCCN(Cc3nccs3)C2)CC1` was inactive: -30.5%; that for `COc1ccc(C(=O)N2CCC3(CC2)CN(c2ccccc2)C3)cc1` was inactive: 6.65%.
In the case of `COc1ccc(C2(C(=O)NCC3Cc4cccc(-c5nc(C)cnc5C)c4O3)CCCC2)cc1` (configuration not stated) it was inactive: -10.7%; in that of `CN[C@H]1CCc2cc(OC)c(OC)c(OC)c2-c2ccc(OC)c(=O)cc21`, inactive: -2.49%.

(Values after PubChem BioAssay AID1645887 (National Center for Advancing Translational Sciences (NCATS), 2021).)
